Here are results for 48 compounds from PubChem BioAssay AID1508642 (National Center for Advancing Translational Sciences (NCATS), 2021).

About 200 (0.47%) of roughly 43,000 compounds were called active. Not shown: some 12% with an inconclusive outcome. Calls come from the whole dose curve; as a rule, active = well fitted cell-killing curve with a large enough effect; inconclusive = small, poorly fitted or top-dose-only effect, or effect the other way; inactive = flat fitted curve, though single readings scatter. This is one part of the list.
% is set by controls: 0 for no effect and ±100 for the full control effect.

The nature of the test: Cell viability qHTS assay in S16 Pmp22-F2sN cells. Note: nearly all actives have a fitted effect of over 65% in size. Conditions: S16 Pmp22-F2sN Schwann cells (luciferase reporters placed in the Pmp22 gene) viability, CellTiter-Glo, 24 h; series mostly up to 57.5 µM; activity change, negative = cytotoxicity: at the top concentration. A digest of the protocol: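 Luminescence from CellTiter-Glo, read by CCD camera after a 15 min room-temperature incubation, served as the viability signal. Reporter Schwann cells (S16 Pmp22-F2sN) had been treated with pin-transferred compounds for 24 h at 37C.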
As for `COc1cccc(CNC(=O)CSc2cc(C)[nH]c(=O)n2)c1`, the “activity change, negative = cytotoxicity” value is inactive: 2.76%.

As to `Cc1ccc(C(=O)COC(=O)CCCC(=O)Nc2cc(C(F)(F)F)ccc2Cl)cc1C`, the “activity change, negative = cytotoxicity” value was inactive: 6.76%.

Turning to `Cc1c(Cl)cccc1NC(=O)CSc1nc(=O)n(Cc2ccncc2)c2c1CCC2`, the “activity change, negative = cytotoxicity” value was inactive: 4.05%.

Turning to `Cn1c(=O)n(Cc2ccccc2Cl)c(=O)c2c1nc1n2CCN1c1ccccc1`, the “activity change, negative = cytotoxicity” value is inactive: 8.65%.

Consider `CCn1ccc2cc(S(=O)(=O)N3CCCN(C(=O)Nc4ccc(C)cc4Cl)CC3)ccc21`, for which the “activity change, negative = cytotoxicity” value was inactive: 16.9%.

Consider `Cc1cc(Nc2ccccc2F)n2nc(Cc3ccc(Cl)cc3)nc2n1`, for which the “activity change, negative = cytotoxicity” value is inactive: -17.2%.

Take `COc1cc2c(cc1OC)n(CC(=O)Nc1ccc(C)cc1C)c(=O)n1nc(-c3ccccc3)nc21`: the “activity change, negative = cytotoxicity” value is inactive: -0.318%.

Regarding `COc1ccc(C(=O)NCc2ccc3c(c2)CCN3C(C)=O)cc1OC`, the “activity change, negative = cytotoxicity” value was inactive: 13.6%.

For the compound `Cc1ccc(-c2nc3cc(Cl)ccc3o2)cc1NC(=O)c1cc2ccccc2o1`, the “activity change, negative = cytotoxicity” value is inactive: 4.38%.

`Cc1c(C(=O)N(C)C)sc2c1c(=O)n(-c1ccccc1C(F)(F)F)c(=O)n2Cc1ccccc1C#N`: the “activity change, negative = cytotoxicity” value is inactive: -6.32%.

As for `COc1ccc(NC(=O)Cn2c(=O)n(Cc3nc(C)no3)c(=O)c3cc4c(cc32)OCO4)cc1`, the “activity change, negative = cytotoxicity” value is inactive: 16.1%.

For `Cc1cc(C)cc(NS(=O)(=O)c2ccc(-c3cc(C)no3)s2)c1`, the “activity change, negative = cytotoxicity” value was inactive: -10.6%.

Turning to `COc1ccc(NC(=O)c2cc3c(=O)n(Cc4cccs4)ccc3nc2C)c(OC)c1`, the “activity change, negative = cytotoxicity” value is inactive: -8.03%.

For `Cc1cc(C)c(NC(=O)C2CCN(C(=O)N3CC(C)Oc4ccc(Cl)cc43)CC2)c(C)c1` (stereo not drawn), the “activity change, negative = cytotoxicity” value was inactive: -1.93%.

`COc1ccccc1CNC(=O)CCCn1c(=O)c2ccccc2n(CC(=O)Nc2ccc(C)cc2Cl)c1=O`: the “activity change, negative = cytotoxicity” value was inactive: 20.2%.

Regarding `CC(C)Cc1nn2c(=O)cc(COC(=O)c3cccc(NC(=O)c4cccs4)c3)nc2s1`, the “activity change, negative = cytotoxicity” value was inactive: 17.8%.

Take `COc1ccc(-c2nsc(NC(=O)COc3ccccc3OC)n2)cc1`: the “activity change, negative = cytotoxicity” value was inactive: -0.971%.

In the case of `CCOc1ccc(NC(=O)CC2Nc3cccc4cccc(c34)NC2=O)cc1` (stereo not drawn), the “activity change, negative = cytotoxicity” value was inactive: -21.4%.

Regarding `COc1ccc(C(=O)N2CCCCC2CCN2CCOCC2)cc1` (stereo not drawn), the “activity change, negative = cytotoxicity” value is inactive: 6.01%.

Turning to `CC1=C(c2ccc(C)c(C)c2)S(=O)(=O)N=C1N1CCN(c2cccc(C)c2)C(C)C1` (stereo not drawn), the “activity change, negative = cytotoxicity” value is inactive: 3.21%.

With `Cc1c(Cl)cccc1NC(=O)c1cc(-c2cccs2)on1`, the “activity change, negative = cytotoxicity” value is inactive: -16.2%.

As for `Cc1c(C(=O)N2CCC(C)CC2)c(S(=O)(=O)Nc2cccc(C#N)c2)c(C)n1C`, the “activity change, negative = cytotoxicity” value was inactive: 0.342%.

In the case of `COc1ccc(CN2CCCN(CC(=O)Nc3ccc(Br)cc3F)S2(=O)=O)cc1`, the “activity change, negative = cytotoxicity” value was inactive: 1.82%.

As to `Cc1ccc(-n2ncc(C(=O)NCc3ccc4c(c3)OCO4)c2C2CCN(C(=O)OC(C)(C)C)CC2)cc1C`, the “activity change, negative = cytotoxicity” value was inactive: -26.9%.

Take `CCOC(=O)c1ccc(NC(=O)C2=C(C)C(=O)OC23CCCCCC3)cc1`: the “activity change, negative = cytotoxicity” value was inactive: 1.84%.

As to `CC(C)Sc1ncc(Cl)c(C(=O)Nc2nc3ccc(S(C)(=O)=O)cc3s2)n1`, the “activity change, negative = cytotoxicity” value is inactive: 6.37%.

For `Cc1cc(-c2ccc(S(=O)(=O)Nc3cccc(C(F)(F)F)c3)s2)on1`, the “activity change, negative = cytotoxicity” value was inactive: -10.6%.

On to `O=C(c1ccccc1Cl)N1CCCC(c2nc3c(nnn3Cc3ccc(F)cc3F)c(=O)[nH]2)C1` (stereo not drawn), for which the “activity change, negative = cytotoxicity” value was inactive: -27%.

In the case of `CC(=O)Nc1ccccc1OCc1cc(=O)n2c(C)csc2n1`, the “activity change, negative = cytotoxicity” value was inactive: -0.378%.

Turning to `CCOC(=O)c1cc(S(=O)(=O)NCc2ccc(F)cc2)[nH]n1`, the “activity change, negative = cytotoxicity” value was inactive: 5.44%.

As for `Cc1ccc(-c2nc(C)c(CCNC(=O)C(=O)Nc3ccc(C)c(Cl)c3)s2)cc1`, the “activity change, negative = cytotoxicity” value is inactive: 9.71%.

`COc1cccc(-c2nn(C)c3sc(C(=O)NCc4ccc(C)cc4)cc23)c1`: the “activity change, negative = cytotoxicity” value was inactive: -1.52%.

For `CC(=O)N1c2ccc(S(=O)(=O)NCc3ccc(Cl)cc3)cc2CC1C` (stereo not drawn), the “activity change, negative = cytotoxicity” value was inactive: -18.6%.

As for `CCC(CC)C(=O)Nc1cccc(-c2nc3ncccn3c2C)c1`, the “activity change, negative = cytotoxicity” value is inactive: -2.88%.

`CCc1ccc(CNC(=O)Cn2nc(C)c3c(C)n(-c4ccc(C)cc4)nc3c2=O)cc1`: the “activity change, negative = cytotoxicity” value is inactive: 5.99%.

`Cc1cc(=O)n2nc(N3CCC(C(=O)NCc4ccccc4F)CC3)sc2n1`: the “activity change, negative = cytotoxicity” value is inactive: 16.1%.

For the compound `Cc1ccc(NC(=O)CSc2ncc3c(n2)-c2ccccc2N(C)S3(=O)=O)c(Cl)c1`, the “activity change, negative = cytotoxicity” value was inactive: 15.4%.

For `COc1ccc(CN(C)c2ccc(-c3nc(C)no3)cc2[N+](=O)[O-])cc1`, the “activity change, negative = cytotoxicity” value was inactive: -15.4%.

`CCCC12CN3CC(C)(CN(C1)C3c1cn(CC)c3ccccc13)C2=O` (stereo not drawn): the “activity change, negative = cytotoxicity” value was inactive: 7.2%.

In the case of `CN(C)c1ccc(CNC(=O)Cn2c(=O)oc3cc(S(=O)(=O)NCc4ccccc4)ccc32)cc1`, the “activity change, negative = cytotoxicity” value was inactive: -20.5%.

For `COc1ccc(CNC(=O)c2ccc(CS(=O)(=O)c3ccc(OC)cc3)o2)cc1`, the “activity change, negative = cytotoxicity” value is inactive: -0.409%.

As for `Cc1nn(CCC(=O)N2CCN(c3ccccc3F)CC2)c(C)c1S(=O)(=O)N1CCCC1`, the “activity change, negative = cytotoxicity” value was inactive: -0.535%.

For `COCCCNC(=O)CSc1nc(-c2ccc(OC)cc2)[nH]c1-c1ccc(OC)cc1`, the “activity change, negative = cytotoxicity” value is inactive: -17.3%.

For `COc1ccc2oc(=O)cc(CN3CCN(c4ccccc4OC)CC3)c2c1`, the “activity change, negative = cytotoxicity” value was inactive: 14.2%.

For the compound `CCOC(=O)c1c(C)[nH]c(CCC(=O)Nc2ccccc2OCC)c1C`, the “activity change, negative = cytotoxicity” value was inactive: -0.977%.

For `O=C(NCc1ccccc1Cl)c1ccc2nc(Cc3ccccc3)oc2c1`, the “activity change, negative = cytotoxicity” value is inactive: -16.1%.

As for `CCC(=O)N1c2ccccc2CC1C(=O)NCCN1CCN(c2cccc(Cl)c2)CC1` (stereo not drawn), the “activity change, negative = cytotoxicity” value is inactive: -15.8%.

On to `CC(=O)N1CCCc2cc(S(=O)(=O)N3CCC(C(=O)NCc4ccccc4Cl)CC3)ccc21`, for which the “activity change, negative = cytotoxicity” value is inactive: 3.16%.
